Laboratory results as given in ChEMBL document CHEMBL1201862, “PubChem BioAssay data set” (2004).

Test system: NCI-H322M
Test: inhibition of tumour cell growth, NCI panel, 48 h

Row | Structure (SMILES) | GI50
1 | O=C(O)c1ccc(SSc2ccc(C(=O)O)cn2)nc1 | inactive: > 100 µM
2 | Cn1cnc([N+](=O)[O-])c1Sc1nnc(-c2cccnc2)n1C | inactive: > 100 µM
3 | COc1cccc2c1C(CO)N1C(C#N)C3CC(C(=O)O)C(C1C2)N3C (configuration not stated) | inactive: 4.46 µM
4 | CC1OC(Oc2c(-c3cc(O)c(O)c(O)c3)oc3cc(O)cc(O)c3c2=O)C(O)C(O)C1O (configuration not stated) | inactive: > 100 µM
5 | N#Cc1c(N)n(C2OC(CO)C(O)C2O)c2ncnc(N)c12 (configuration not stated) | active: 0.0294 µM
6 | CN(C)CCCNc1ncnc2[nH]cnc12 | inactive: > 100 µM
7 | OCc1cn(Cc2ccccc2)c2ccccc12 | inactive: 24.3 µM
8 | CC1(C)C(=O)/C=C\C(=O)C(C)(C)C(=O)/C=C\C(=O)C(C)(C)C2=CC=C(O2)C(C)(C)C(=O)/C=C\C1=O | inactive: 18.8 µM
9 | COC(=O)CCCN(C)c1nc(N)n[nH]1 | inactive: > 100 µM
10 | O=C(Nc1ccccc1)c1cc2c(cc1Cl)Sc1nccn1S2(=O)=O | inactive: 20.2 µM
11 | NC(=O)CC(N/C=C1/N=C(c2ccccc2)OC1=O)C(=O)O (configuration not stated) | inactive: > 100 µM
12 | Cc1cc(C)n(CN(CCCCO)Cn2nc(C)cc2C)n1 | inactive: > 100 µM
13 | CCOC(=O)[C@H](CCCNC(=O)OC(C)(C)C)NCc1ccc(OC)c(OC)c1 | inactive: > 100 µM
14 | Cc1ccc2c3c1[C@@H]1O[C@@H]1c1cccc(c1-3)[C@@H]1O[C@H]21 | inactive: 15.4 µM
15 | COC(=O)c1sc(=S)sc1SCc1ccccc1CSc1sc(=S)sc1C(=O)OC | inactive: > 100 µM
16 | C[C@]12O[C@@]3(C)O[C@@]3(C)[C@]3(C)O[C@]3(C)[C@@]1(C)O2 | inactive: > 100 µM
17 | c1csc(C[N+]23CN4CN(CN(C4)C2)C3)c1 | inactive: > 100 µM
18 | Cn1c(CCC2(C)Cc3ccccc3C(=O)O2)cc2ccccc2c1=O (configuration not stated) | inactive: 28.8 µM
19 | CC(=O)Nc1ccc2c3c(cc(O)c2c1)N(C(=O)CCCCCC(=O)N1CC(CCl)c2c1cc(O)c1cc(NC(C)=O)ccc21)CC3CCl (configuration not stated) | active: 0.179 µM
20 | CC(C)C(NCc1c2ccccc2[n+](C)c2ccccc12)C(=O)O (configuration not stated) | inactive: 13.1 µM
21 | CC1=CC(=O)C(C)(C2=NC(C)(C)CO2)c2ccccc21 (configuration not stated) | inactive: > 100 µM
22 | O=C(O)C1CC(C2CCCCN2)CN2CCCCC12 (configuration not stated) | inactive: > 100 µM
23 | CN(C)CCNC(=O)c1cccc2c1Oc1c(cccc1[N+](=O)[O-])O2 | inactive: 3.85 µM

Row | Structure (SMILES) | GI50
24 | CCn1c2ccccc2n2c(=O)c3c(c(C#N)c12)CCCC3 | inactive: > 100 µM
25 | O=C(c1cccs1)N(C(=S)OCc1ccccn1)c1ccccc1 | inactive: > 100 µM
26 | COc1ccc(CC2(Cc3ccc(OC)cc3)CCOC2=O)cc1 | inactive: > 100 µM
27 | C/C=C\C(CC(=O)NCCc1cn(C(=O)OCc2ccccc2)c2ccccc12)CC(=O)OC (configuration not stated) | inactive: > 100 µM
28 | c1ccc(-c2[nH]c(-c3ccccc3)c(-c3cnccn3)c2-c2cnccn2)cc1 | inactive: > 100 µM
29 | COc1nc2c(c(=O)n1C)NC(C(O)C(O)CO)C=N2 (configuration not stated) | inactive: > 10 µM
30 | COc1ccc(C2SC(=N)Nc3c2c(C)nn3C(=O)Cc2ccccc2)cc1 (configuration not stated) | inactive: > 100 µM
31 | CCN(CC)Cc1nc(C2CCC([N+](=O)[O-])O2)no1 (configuration not stated) | inactive: 23.6 µM
32 | CN(C)N1C(=O)CC2(CCN(CCCC(=O)c3ccc(F)cc3)CC2)C1=O | inactive: > 100 µM
33 | N#CC1C(=O)NC2=C(CCOc3c2ccc2ccccc32)C1c1ccc(F)cc1 (configuration not stated) | inactive: 59.2 µM
34 | Cc1nc(N)c(N2CCN([N+](=O)[O-])CC2)c(O)n1 | inactive: > 100 µM
35 | N#Cc1ccc(-c2ccc(Cl)cc2)n(C2OC(CO)C(O)C(O)C2O)c1=S (configuration not stated) | inactive: > 100 µM
36 | O=C1NC(=N/c2ccccc2)/C(=N\c2ccccc2)N1c1ccccc1 | inactive: 18.3 µM
37 | Cc1ccc(C)c(NC(=O)C(=O)C(C(=O)c2ccc3ccccc3c2)C2OC(=O)c3ccccc32)c1 (configuration not stated) | inactive: 10 µM
38 | C/C(=N/NC(=S)N1CC2CCC(CC2)C1)c1cnccn1 | active: < 0.01 µM
39 | COC(=O)C12C3C4C1C1C2C3C41C(=O)NC(C)(C)CC(=O)O (configuration not stated) | inactive: > 100 µM
40 | CCOP(=O)(OCC)/C(C#N)=C/c1coc2cc(C)cc(C)c2c1=O | inactive: > 100 µM
41 | CCOP(=O)(OCC)c1cc2cc(O)ccc2oc1=O | inactive: > 100 µM
42 | CCN(CC)c1ccc(/C=C/C(=O)c2cc(C(C)(C)C)c(O)c(C(C)(C)C)c2)cc1 | inactive: 23.9 µM
43 | N#CC(C(=O)CCCC(=O)Nc1ccc(Cl)cc1Cl)c1ccccc1 (configuration not stated) | inactive: > 100 µM
44 | CC(C)C1=C(O)C(=O)C2=C(C1=O)C(O)CC1C(C)(C)CCCC21C (configuration not stated) | inactive: 5.37 µM
45 | O=C(c1nc2ccccc2nc1O)C(O)c1ccco1 (configuration not stated) | inactive: > 100 µM
46 | Cn1nc(Cc2ccc(Cl)cc2)n(N)c1=O | inactive: > 100 µM

Row | Structure (SMILES) | GI50
47 | Cc1ccc(C(=O)Nc2ccc(CP(=O)(O)O)cc2CP(=O)(O)O)cc1NC(=O)c1cccc(N)c1 | inactive: > 100 µM
48 | N#Cc1nc(-c2cnccn2)oc1N | inactive: > 100 µM
49 | Cc1c[nH]c(C(=O)O)c1-c1cccn1-c1ccc(Cl)cc1[N+](=O)[O-] | inactive: > 100 µM
50 | Clc1ccc(OCCSCCCCCCCCCCSCCOc2ccc(Cl)cc2)cc1 | inactive: > 100 µM
51 | CN(C)CCCNC(=O)c1cc(NC(=O)c2cc(NC(=O)CCCn3c4ccccc4c4ccccc43)cn2C)cn1C | inactive: 8.47 µM
52 | CC1=NC(=Cc2ccc(O)cc2)C(=O)N1n1c(-c2ccccc2)nc2ccccc2c1=O | inactive: > 100 µM
53 | CN(CCCNC(=O)c1cn(C)c2c1ccc1cc(Cl)ccc12)CCCNC(=O)c1cn(C)c2c1ccc1cc(Cl)ccc12 | inactive: 2.33 µM
54 | CCc1cccc(C(C)CC)c1/N=C(/NC(=O)c1ccccc1C(=O)N/C(=N/c1c(CC)cccc1C(C)CC)SC)SC (configuration not stated) | inactive: 43.2 µM
55 | O=S1OC2(c3ccccc3-c3ccccc32)c2ccccc21 (configuration not stated) | inactive: > 100 µM
56 | COc1ccc(CCCCl)c(C2=NCCc3ccccc32)c1 | inactive: > 100 µM
57 | O=C(NCCS(=O)(=O)N1C(=O)C2CCCN2C(=O)[C@@H]1Cc1ccccc1)OCc1ccccc1 (some centres not stated) | inactive: > 100 µM
58 | Cc1ccc(S(=O)(=O)OCCC2CN(C(=O)OCc3ccccc3)C(C)(C)O2)cc1 (configuration not stated) | inactive: > 100 µM
59 | CC1(C)C(/C=N\O)=[N+]([O-])C(C)(C)N1O | inactive: > 100 µM
60 | CC1(C)C2C=C(CCN3CCOCC3)CC1C2 (configuration not stated) | inactive: > 100 µM
61 | CN1CCN2CCN(C)CCN(CC1)CC2 | inactive: > 100 µM
62 | O=C1C(=O)N(c2ccc(Cl)cc2)C(=O)/C(=N/c2cccc3c(=O)[nH][nH]c(=O)c23)C1c1nc2ccccc2o1 (configuration not stated) | inactive: > 100 µM
63 | CC(=O)Nc1cc2nc3n(c2cc1C)CCC3OC(C)=O (configuration not stated) | inactive: > 100 µM
64 | COc1ccc2c(c1)C(=O)[C@@](Nc1ccc(C=O)cc1)(OC)[C@@](OC)(c1ccc([N+](=O)[O-])cc1)O2 | inactive: > 10 µM
65 | COC(=O)c1nc(C(=O)OC)c2c([nH]c3ccccc32)c1C(=O)OC | inactive: > 100 µM
66 | CCOC(=O)/C=C/[C@@H](CC)O[Si](C(C)C)(C(C)C)C(C)C | inactive: > 100 µM
67 | CCCCCC1CC=CC(=O)O1 (configuration not stated) | inactive: 2.42 µM
68 | CC(=O)OC(CCC1(C)OC1COc1ccc(CCNC(=O)c2ccccc2)cc1)C(C)(C)OC(C)=O (configuration not stated) | inactive: 99.5 µM
69 | O=[N+]([O-])c1ccc(C(O)/C(=N/O)c2nc3ccc(Cl)cc3nc2O)cc1 (configuration not stated) | inactive: > 100 µM

Row | Structure (SMILES) | GI50
70 | Cc1ccc(O)c(C2=CC3=NNC(=O)C3C(c3cccc(Br)c3)C2)c1 (configuration not stated) | inactive: 14.6 µM
71 | N#Cc1nc(Cc2ccccc2)oc1N | inactive: > 100 µM
72 | C/C(=N/c1[nH]c(=O)cc2c1C(=O)CC2)N(C)C | inactive: > 200 µM
73 | O=c1[nH]nc(-c2ccccc2)c2[nH]c3c(c12)Cc1ccccc1-3 | active: 0.624 µM
74 | O=c1c2ccccc2nc(-c2ccccc2)n1/N=C/c1ccccc1[N+](=O)[O-] | inactive: > 100 µM
75 | COC(=O)C12C3C4C5C3(C#N)C1C5(C(=O)OC)C42C(=O)N(C(C)C)C(C)C (configuration not stated) | inactive: > 100 µM
76 | CCOC(=O)C1=NNC(C(=O)c2ccccc2)C1c1ccccc1 (configuration not stated) | inactive: 18 µM
77 | COC(=O)[C@@H]1C[C@H]([Se]c2ccccc2)CN1S(=O)(=O)c1ccc(C)cc1 | inactive: > 100 µM
78 | C=C1c2nc3ccccc3n2C=C(c2ccc(Cl)cc2)N1c1ccc(OCCN2CCOCC2)cc1 | inactive: 61.8 µM
79 | COc1ccc(CCNC2=CC(=O)c3ncccc3C2=O)cc1OC | inactive: 1.3 µM
80 | COc1ccc2c(c1)c(=O)c1c(NCCCN(C)C)ccc3ncn2c31 | inactive: 1.6 µM
81 | OC1c2ccccc2CC12Cc1ccccc1C2 (configuration not stated) | inactive: > 100 µM
82 | C[C@]12CCC(=O)C=C1CC[C@@H]1[C@@H]2CC[C@]2(C)C(=O)/C(=C\c3ccccc3)C[C@@H]12 | inactive: 46.9 µM
83 | CCN(CC)CCC1CC/C(=C\c2ccc(OC)cc2)C1=O (configuration not stated) | inactive: > 100 µM
84 | COc1ccc2[nH]cc(C(=O)C(=O)NC34CC5CC(CC(C5)C3)C4)c2c1 | inactive: 37.7 µM
85 | COC(=O)[C@]12CCC(=O)N1[C@H](C(=O)O)Cc1c2[nH]c2ccccc12 | inactive: > 100 µM
86 | Cc1cc(C)nc(NCCC(O)(P(=O)(O)O)P(=O)(O)O)n1 | inactive: > 100 µM
87 | COCC(C#N)NC1CC(OC2CC(O)(C(=O)CO)Cc3c(O)c4c(c(O)c32)C(=O)c2c(OC)cccc2C4=O)OC(C)C1O (configuration not stated) | active: 0.275 µM
88 | CC1=C[C@@H](C)C[C@]2(C)CC[C@H](O2)[C@]23CC[C@](C)(C[C@H](O2)[C@@H]2O[C@@](C)(CC2=O)[C@@H](O)[C@H]2CC[C@@]4(CCC[C@@H](O4)[C@H](C)C(=O)O[C@H]4C[C@H]([C@]5(O)OCC[C@H](C)[C@@H]5O)O[C@H]4C=C1)O2)O3 | active: 0.164 µM
89 | CCc1cccc2c3c([nH]c12)-c1ccccc1NC(=O)C3 | inactive: > 100 µM
90 | COc1ccc(CC2c3cc(OC)c(OC)cc3CC[N+]2(C)C)cc1OC (configuration not stated) | inactive: > 100 µM
91 | COc1ccccc1-c1cc(O)c2ccc(C)nc2n1 | inactive: > 100 µM
92 | CN(C)CCNc1ccc2c(=O)n(CCN(C)C)c(=O)n3c4ccccc4c(=O)c1c23 | active: 0.0594 µM

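Interpolation was linear, between the two tested concentrations surrounding the appropriate level; five concentrations were tested over 48 hours in 96-well plates. At the GI50, growth is halved.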 Active and inactive are the calls of the source. No stated cut-off is given here; in the data, active = GI50 up to about 1.1 µM and inactive = higher.
